Results taken from PubChem BioAssay AID504333 (National Center for Advancing Translational Sciences (NCATS), 2011).
The campaign covered roughly 360,000 compounds. About 16,000 (4.4%) were called active. Inconclusive results, whose numbers are uncertain, are shown with a selection of clear calls. Calls follow the shape of the dose curve; as a rule, active = well fitted inhibition curve with a large enough effect; inconclusive = small, poorly fitted or top-dose-only effect; inactive = no such curve, though single readings can be large or run the other way. A potency beside an inconclusive call is a rough fit, not a confirmed value.

target: Bromodomain adjacent to zinc finger domain protein 2B (Homo sapiens) (UniProt Q9UIF8); test: qHTS Assay for Inhibitors of BAZ2B; details: AlphaScreen BAZ2B-H3K14Ac peptide displacement; activity change, negative = inhibition: at 114 µM (top of the series); also: nearly all actives have a fitted effect of over 60% in size
Chain of UniProt Q9UIF8 (Q9UIF8 whole entry, looked up, the tested form may be a part): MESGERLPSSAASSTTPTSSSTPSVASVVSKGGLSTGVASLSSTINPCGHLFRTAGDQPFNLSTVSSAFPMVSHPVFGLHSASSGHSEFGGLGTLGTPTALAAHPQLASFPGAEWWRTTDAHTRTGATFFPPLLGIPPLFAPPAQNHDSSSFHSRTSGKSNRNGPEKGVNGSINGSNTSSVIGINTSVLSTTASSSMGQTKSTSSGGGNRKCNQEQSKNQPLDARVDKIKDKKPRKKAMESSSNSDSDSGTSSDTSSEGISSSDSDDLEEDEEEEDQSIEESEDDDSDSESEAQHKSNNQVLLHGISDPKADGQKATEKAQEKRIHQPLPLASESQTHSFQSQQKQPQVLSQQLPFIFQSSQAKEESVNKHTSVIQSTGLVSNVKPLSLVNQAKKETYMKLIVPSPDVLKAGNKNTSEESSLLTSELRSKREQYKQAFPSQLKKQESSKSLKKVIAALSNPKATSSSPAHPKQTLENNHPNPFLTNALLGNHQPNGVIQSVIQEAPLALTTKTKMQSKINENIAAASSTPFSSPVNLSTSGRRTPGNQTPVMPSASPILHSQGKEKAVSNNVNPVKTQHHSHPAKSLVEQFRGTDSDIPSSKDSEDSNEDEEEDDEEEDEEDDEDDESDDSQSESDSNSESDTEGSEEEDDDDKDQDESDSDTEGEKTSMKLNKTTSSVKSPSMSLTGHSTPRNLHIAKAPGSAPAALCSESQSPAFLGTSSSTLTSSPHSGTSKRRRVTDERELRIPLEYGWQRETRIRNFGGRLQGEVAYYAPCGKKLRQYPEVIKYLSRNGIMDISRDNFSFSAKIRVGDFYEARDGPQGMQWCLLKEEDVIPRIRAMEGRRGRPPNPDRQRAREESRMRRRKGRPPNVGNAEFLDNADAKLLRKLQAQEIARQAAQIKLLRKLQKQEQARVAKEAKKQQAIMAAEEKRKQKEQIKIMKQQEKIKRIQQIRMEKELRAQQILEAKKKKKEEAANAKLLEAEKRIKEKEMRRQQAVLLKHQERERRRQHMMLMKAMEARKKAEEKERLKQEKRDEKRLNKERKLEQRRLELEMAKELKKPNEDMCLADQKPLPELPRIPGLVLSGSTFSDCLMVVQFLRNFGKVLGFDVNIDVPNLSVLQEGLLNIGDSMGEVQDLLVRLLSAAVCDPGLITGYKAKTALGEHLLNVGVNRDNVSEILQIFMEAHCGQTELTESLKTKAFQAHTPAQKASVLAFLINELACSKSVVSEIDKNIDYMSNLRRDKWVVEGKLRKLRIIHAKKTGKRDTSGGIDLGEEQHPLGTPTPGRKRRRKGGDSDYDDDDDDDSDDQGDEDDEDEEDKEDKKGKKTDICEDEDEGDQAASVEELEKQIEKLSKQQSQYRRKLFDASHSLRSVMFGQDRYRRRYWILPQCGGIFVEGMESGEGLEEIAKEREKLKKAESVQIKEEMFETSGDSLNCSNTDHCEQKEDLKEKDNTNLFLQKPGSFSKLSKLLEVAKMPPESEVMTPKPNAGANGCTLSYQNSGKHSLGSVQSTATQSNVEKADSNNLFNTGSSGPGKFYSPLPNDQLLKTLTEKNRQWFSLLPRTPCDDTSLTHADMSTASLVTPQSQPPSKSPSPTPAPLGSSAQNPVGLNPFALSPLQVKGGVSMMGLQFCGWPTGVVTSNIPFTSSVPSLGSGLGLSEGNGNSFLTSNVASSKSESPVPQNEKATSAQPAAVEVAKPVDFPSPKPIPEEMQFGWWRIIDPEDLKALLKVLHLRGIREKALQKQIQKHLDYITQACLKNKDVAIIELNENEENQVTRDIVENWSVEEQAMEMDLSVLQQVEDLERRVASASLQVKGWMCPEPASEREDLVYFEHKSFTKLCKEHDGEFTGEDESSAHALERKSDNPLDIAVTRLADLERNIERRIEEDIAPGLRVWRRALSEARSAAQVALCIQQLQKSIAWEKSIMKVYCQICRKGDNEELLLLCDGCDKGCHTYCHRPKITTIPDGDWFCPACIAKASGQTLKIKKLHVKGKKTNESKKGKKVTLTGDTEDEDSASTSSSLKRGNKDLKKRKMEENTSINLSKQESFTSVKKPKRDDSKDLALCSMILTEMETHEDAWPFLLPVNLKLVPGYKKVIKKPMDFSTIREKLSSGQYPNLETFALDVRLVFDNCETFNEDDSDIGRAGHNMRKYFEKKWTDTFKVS
Method in brief: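 Compounds, titrated to a top concentration of 110 uM, were incubated 30 min at room temperature with preformed BAZ2B/acetyl-K14 H3 peptide complex (50 nM each). Proximity signal was measured by AlphaScreen after 20 min with beads.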
% is scaled to controls: 0 for no effect and ±100 for the full control effect; potency is read from the fitted curve at half-maximal effect; tags tell the direction and shape of the fitted curve.

Row | SMILES | Potency | activity change, negative = inhibition
1 | CCOc1ccccc1NC(=O)CSc1nccn1-c1ccccc1 | active: 50.1 µM | 
2 | Cc1ccc(C(=O)NNC(=O)C(C)Sc2nc(N)cc(N)n2)cc1 (stereo not given) |  | inactive: -2.37%
3 | Cc1nc2ccc(S(=O)(=O)Nc3cccc(-c4nc5cccnc5s4)c3C)cc2s1 |  | inactive: -34.4%
4 | CNC(=O)N(O)C1N(/N=C/c2cc(Br)ccc2O)C(=S)SC1(C)C (stereo not given) | inconclusive: 56.2 µM [inhibitor, single point] | 
5 | COC(=O)c1ccc(CSc2nc3ccccc3c(=O)n2CC(C)C)o1 |  | inactive: 0.981%
6 | CC(=O)Nc1ccccc1C(=O)C(=O)Nc1cccc(Br)c1 | inconclusive: 56.2 µM [inhibitor, partial curve] | 
7 | CN(c1ccc([N+](=O)[O-])cc1C(=O)Nc1ccccc1)C1CCCCC1 | inconclusive: 35.5 µM [inhibitor, partial curve] | 
8 | Cc1ccccc1N1CC(C(=O)Nc2ccc3c(c2)OCO3)CC1=O (stereo not given) | inconclusive: 70.8 µM [inhibitor, single point] | 
9 | O=C(O)c1ccc(N/N=C2/CCSc3ccc(F)cc32)cc1 | inconclusive: 89.1 µM [inhibitor, single point] | 
10 | COC(=O)CSc1nc2nc(C)c(Br)cc2[nH]1 |  | inactive: 1.89%
11 | O=C(Nc1ccccc1)c1cc([N+](=O)[O-])ccc1Cl | inconclusive: 89.1 µM [inhibitor, single point] | 
12 | O=[N+]([O-])c1cc(/C=N/N2CCN(C3c4ccccc4-c4ccccc43)CC2)ccc1Cl | inconclusive: 8.91 µM [inhibitor, full curve, poor fit] | 
13 | O=C(CN1CCN(c2ccc(O)cc2)CC1)Nc1ccc(SC(F)F)cc1 | inconclusive: 50.1 µM [inhibitor, partial curve] | 
14 | CN1CCN(c2oc(-c3ccc(COc4ccc(Cl)cc4)o3)nc2C#N)CC1 | active: 25.1 µM | 
15 | N#Cc1nc(-c2ccc(COc3ccccc3)o2)oc1NCc1ccccc1 | inconclusive: 10 µM [inhibitor, full curve, poor fit] | 
16 | O=C(CN1C(=O)CCc2cc(S(=O)(=O)N3CCOCC3)ccc21)Nc1cccc(Cl)c1 |  | inactive: -7.22%
17 | COCCN(C(=O)COC(=O)c1cc2c(s1)CCC2)c1c(N)n(Cc2ccccc2)c(=O)[nH]c1=O | active: 8.91 µM | 
18 | CCOc1ccc(NCc2ccccc2OCc2cccc(F)c2)cc1 | inconclusive: 39.8 µM [inhibitor, partial curve] | 
19 | COc1ccc(-n2c(COc3ccc(C)cc3)nnc2SCc2ccc(C#N)cc2)cc1 |  | inactive: -3.14%
20 | N#Cc1c(NC(=S)NC(=O)c2ccccc2)sc2c1CCN(CCc1ccccc1)C2 |  | inactive: -11.6%
